{"source": "the antibiotic and cytotoxicity screens of Wong et al. (2023)", "key": {"HSkMC": {"system": "HSkMC", "assay": "cytotoxicity call (relative viability < 0.9)", "conditions": "10 µM"}, "HepG2": {"system": "HepG2", "assay": "cytotoxicity call (relative viability < 0.9)", "conditions": "10 µM"}, "S. aureus RN4220": {"system": "S. aureus RN4220", "assay": "growth inhibition call (relative growth <= 0.2)", "conditions": "50 µM"}}, "note": "This is one part of the list."}
{"compound": "C[C@@H]1CN([C@@H](C)CO)C(=O)c2cc(NC(=O)Nc3ccc(F)cc3)ccc2O[C@@H]1CN(C)C(=O)Nc1cccc2ccccc12", "values": [{"measurement": "cytotoxicity call", "setting": "HSkMC", "value": "active"}, {"measurement": "cytotoxicity call", "setting": "HepG2", "value": "inactive"}, {"measurement": "growth inhibition call", "setting": "S. aureus RN4220", "value": "inactive"}]}
{"compound": "COc1ccc(-c2cnc3c(c2)C(=O)N([C@H](C)CO)C[C@@H](C)[C@@H](CN(C)C(=O)Cc2cccnc2)O3)cc1", "values": [{"measurement": "cytotoxicity call", "setting": "HSkMC", "value": "inactive"}, {"measurement": "cytotoxicity call", "setting": "HepG2", "value": "inactive"}, {"measurement": "growth inhibition call", "setting": "S. aureus RN4220", "value": "inactive"}]}
{"compound": "C[C@H]1CN([C@@H](C)CO)C(=O)c2cccc(NC(=O)Nc3cccc4ccccc34)c2O[C@H]1CN(C)Cc1ccccc1", "values": [{"measurement": "cytotoxicity call", "setting": "HSkMC", "value": "inactive"}, {"measurement": "cytotoxicity call", "setting": "HepG2", "value": "inactive"}, {"measurement": "growth inhibition call", "setting": "S. aureus RN4220", "value": "inactive"}]}
{"compound": "C[C@@H]1CCCCO[C@H](CN(C)C(=O)Nc2ccc3c(c2)OCO3)[C@@H](C)CN([C@@H](C)CO)C(=O)c2cc(NS(=O)(=O)c3ccc(F)cc3)ccc2O1", "values": [{"measurement": "cytotoxicity call", "setting": "HSkMC", "value": "inactive"}, {"measurement": "cytotoxicity call", "setting": "HepG2", "value": "inactive"}, {"measurement": "growth inhibition call", "setting": "S. aureus RN4220", "value": "inactive"}]}
{"compound": "C[C@H](CO)N1C[C@H](C)[C@@H](CN(C)S(C)(=O)=O)Oc2c(NC(=O)Nc3ccc4c(c3)OCO4)cccc2C1=O", "values": [{"measurement": "cytotoxicity call", "setting": "HSkMC", "value": "inactive"}, {"measurement": "cytotoxicity call", "setting": "HepG2", "value": "inactive"}, {"measurement": "growth inhibition call", "setting": "S. aureus RN4220", "value": "inactive"}]}
{"compound": "C[C@@H]1CN([C@@H](C)CO)C(=O)c2c(c3ccccc3n2C)-c2ccccc2CO[C@H]1CN(C)C(=O)Nc1ccccc1C(F)(F)F", "values": [{"measurement": "cytotoxicity call", "setting": "HSkMC", "value": "inactive"}, {"measurement": "cytotoxicity call", "setting": "HepG2", "value": "inactive"}, {"measurement": "growth inhibition call", "setting": "S. aureus RN4220", "value": "inactive"}]}
{"compound": "CO[C@H]1CN(C)C(=O)c2cc(NC(=O)Nc3ccccc3F)ccc2OC[C@@H](C)N(Cc2ccccc2C(=O)O)C[C@@H]1C", "values": [{"measurement": "cytotoxicity call", "setting": "HSkMC", "value": "inactive"}, {"measurement": "cytotoxicity call", "setting": "HepG2", "value": "inactive"}, {"measurement": "growth inhibition call", "setting": "S. aureus RN4220", "value": "inactive"}]}
{"compound": "CCS(=O)(=O)Nc1ccc2c(c1)C(=O)N(C)[C@@H]1CC[C@H](CC(=O)NCCOC)O[C@@H]1CO2", "values": [{"measurement": "cytotoxicity call", "setting": "HSkMC", "value": "inactive"}, {"measurement": "cytotoxicity call", "setting": "HepG2", "value": "inactive"}, {"measurement": "growth inhibition call", "setting": "S. aureus RN4220", "value": "inactive"}]}
{"compound": "C[C@@H]1CN([C@H](C)CO)C(=O)Cc2cc(NC(=O)CCN3CCOCC3)ccc2O[C@H]1CN(C)Cc1ccccc1", "values": [{"measurement": "cytotoxicity call", "setting": "HSkMC", "value": "inactive"}, {"measurement": "cytotoxicity call", "setting": "HepG2", "value": "inactive"}, {"measurement": "growth inhibition call", "setting": "S. aureus RN4220", "value": "inactive"}]}
{"compound": "CCCC12CN3CC(CCC)(CN(C1)C3[C@@H](O)[C@@H](O)[C@@H](O)CO)C2=O", "note": "(some centres not stated)", "values": [{"measurement": "cytotoxicity call", "setting": "HSkMC", "value": "inactive"}, {"measurement": "cytotoxicity call", "setting": "HepG2", "value": "inactive"}, {"measurement": "growth inhibition call", "setting": "S. aureus RN4220", "value": "inactive"}]}
{"compound": "C[C@@H]1CCCCO[C@@H](CN(C)Cc2ccc(C(=O)Nc3ccccc3N)cc2)[C@@H](C)CN([C@H](C)CO)C(=O)c2cc(NC(=O)CCC(F)(F)F)ccc2O1", "values": [{"measurement": "cytotoxicity call", "setting": "HSkMC", "value": "inactive"}, {"measurement": "cytotoxicity call", "setting": "HepG2", "value": "inactive"}, {"measurement": "growth inhibition call", "setting": "S. aureus RN4220", "value": "inactive"}]}
{"compound": "C[C@H]1CN([C@@H](C)CO)C(=O)c2cc(C3=CCCCC3)cnc2O[C@H]1CN(C)C(=O)CN1CCOCC1", "values": [{"measurement": "cytotoxicity call", "setting": "HSkMC", "value": "inactive"}, {"measurement": "cytotoxicity call", "setting": "HepG2", "value": "inactive"}, {"measurement": "growth inhibition call", "setting": "S. aureus RN4220", "value": "inactive"}]}
{"compound": "Cc1noc(C)c1S(=O)(=O)Nc1ccc2c(c1)C(=O)N([C@@H](C)CO)C[C@@H](C)[C@H](CN(C)C(=O)Nc1ccc(C(F)(F)F)cc1)OCCCC[C@@H](C)O2", "values": [{"measurement": "cytotoxicity call", "setting": "HSkMC", "value": "inactive"}, {"measurement": "cytotoxicity call", "setting": "HepG2", "value": "inactive"}, {"measurement": "growth inhibition call", "setting": "S. aureus RN4220", "value": "inactive"}]}
{"compound": "C[C@@H]1CCCCO[C@H](CN(C)C(=O)Nc2ccc(F)cc2)[C@H](C)CN([C@@H](C)CO)C(=O)c2cc(NC(=O)NC3CCCCC3)ccc2O1", "values": [{"measurement": "cytotoxicity call", "setting": "HSkMC", "value": "inactive"}, {"measurement": "cytotoxicity call", "setting": "HepG2", "value": "inactive"}, {"measurement": "growth inhibition call", "setting": "S. aureus RN4220", "value": "inactive"}]}
{"compound": "COc1ccc(CN(C)C[C@@H]2Oc3ccc(NS(=O)(=O)c4c(C)noc4C)cc3CC(=O)N([C@@H](C)CO)C[C@H]2C)cc1", "values": [{"measurement": "cytotoxicity call", "setting": "HSkMC", "value": "inactive"}, {"measurement": "cytotoxicity call", "setting": "HepG2", "value": "inactive"}, {"measurement": "growth inhibition call", "setting": "S. aureus RN4220", "value": "inactive"}]}
{"compound": "C[C@H](CO)N1C[C@H](C)[C@@H](CN(C)C(=O)Nc2ccccc2)OCCCC[C@H](C)Oc2ccc(NC(=O)Nc3ccc4c(c3)OCO4)cc2C1=O", "values": [{"measurement": "cytotoxicity call", "setting": "HSkMC", "value": "inactive"}, {"measurement": "cytotoxicity call", "setting": "HepG2", "value": "inactive"}, {"measurement": "growth inhibition call", "setting": "S. aureus RN4220", "value": "inactive"}]}
{"compound": "COCC(=O)Nc1ccc2c(c1)C(=O)N(C)[C@@H]1CC[C@@H](CC(=O)N3CCc4ccccc4C3)O[C@@H]1CO2", "values": [{"measurement": "cytotoxicity call", "setting": "HSkMC", "value": "inactive"}, {"measurement": "cytotoxicity call", "setting": "HepG2", "value": "inactive"}, {"measurement": "growth inhibition call", "setting": "S. aureus RN4220", "value": "inactive"}]}
{"compound": "C[C@H]1CN([C@@H](C)CO)C(=O)c2cc(Br)cnc2O[C@@H]1CN(C)C(=O)Nc1ccc(F)cc1", "values": [{"measurement": "cytotoxicity call", "setting": "HSkMC", "value": "inactive"}, {"measurement": "cytotoxicity call", "setting": "HepG2", "value": "inactive"}, {"measurement": "growth inhibition call", "setting": "S. aureus RN4220", "value": "inactive"}]}
{"compound": "C[C@H]1CN([C@@H](C)CO)C(=O)c2cc(C#CC3CC3)cnc2O[C@@H]1CN(C)S(=O)(=O)c1cccc(F)c1", "values": [{"measurement": "cytotoxicity call", "setting": "HSkMC", "value": "inactive"}, {"measurement": "cytotoxicity call", "setting": "HepG2", "value": "inactive"}, {"measurement": "growth inhibition call", "setting": "S. aureus RN4220", "value": "inactive"}]}
{"compound": "C[C@H]1CN([C@@H](C)CO)C(=O)c2cccc(NC(=O)c3cnccn3)c2O[C@H]1CN(C)C(=O)NC1CCCCC1", "values": [{"measurement": "cytotoxicity call", "setting": "HSkMC", "value": "inactive"}, {"measurement": "cytotoxicity call", "setting": "HepG2", "value": "inactive"}, {"measurement": "growth inhibition call", "setting": "S. aureus RN4220", "value": "inactive"}]}
{"compound": "Cc1ccc(S(=O)(=O)N(C)C[C@H]2Oc3ccc(N(C)C)cc3CC(=O)N([C@H](C)CO)C[C@@H]2C)cc1", "values": [{"measurement": "cytotoxicity call", "setting": "HSkMC", "value": "inactive"}, {"measurement": "cytotoxicity call", "setting": "HepG2", "value": "inactive"}, {"measurement": "growth inhibition call", "setting": "S. aureus RN4220", "value": "inactive"}]}
{"compound": "C[C@@H]1CN([C@H](C)CO)C(=O)c2cc(NC(=O)c3ccncc3)ccc2O[C@@H]1CN(C)Cc1ccc(C(=O)O)cc1", "values": [{"measurement": "cytotoxicity call", "setting": "HSkMC", "value": "inactive"}, {"measurement": "cytotoxicity call", "setting": "HepG2", "value": "inactive"}, {"measurement": "growth inhibition call", "setting": "S. aureus RN4220", "value": "inactive"}]}
{"compound": "C[C@H]1CN([C@@H](C)CO)C(=O)Cc2cc(NC(=O)CCN3CCOCC3)ccc2O[C@@H]1CN(C)S(=O)(=O)c1ccccc1", "values": [{"measurement": "cytotoxicity call", "setting": "HSkMC", "value": "inactive"}, {"measurement": "cytotoxicity call", "setting": "HepG2", "value": "inactive"}, {"measurement": "growth inhibition call", "setting": "S. aureus RN4220", "value": "inactive"}]}
{"compound": "C[C@H]1CN([C@@H](C)CO)C(=O)c2cccc(NS(=O)(=O)c3ccc(F)cc3)c2O[C@@H]1CN(C)S(=O)(=O)c1cccs1", "values": [{"measurement": "cytotoxicity call", "setting": "HSkMC (human skeletal muscle cells)", "value": "inactive"}, {"measurement": "cytotoxicity call", "setting": "HepG2", "value": "inactive"}, {"measurement": "growth inhibition call", "setting": "S. aureus RN4220", "value": "inactive"}]}
